From article PMC4336329 (PLoS ONE, 2015)
Hit rate of the full screen: of about 310,000 compounds, about 2,200 (0.71%) showed an effect of 50% or more. The effect is printed as a negative number. Some of the results follow.

These compounds were tested against human ether-à-go-go-related gene (hERG) potassium channel (human, UniProt Q12809) (assay: primary screen, population patch clamp on CHO cells stably expressing hERG).
human ether-à-go-go-related gene (hERG) potassium channel, sequence (Q12809 whole entry, looked up): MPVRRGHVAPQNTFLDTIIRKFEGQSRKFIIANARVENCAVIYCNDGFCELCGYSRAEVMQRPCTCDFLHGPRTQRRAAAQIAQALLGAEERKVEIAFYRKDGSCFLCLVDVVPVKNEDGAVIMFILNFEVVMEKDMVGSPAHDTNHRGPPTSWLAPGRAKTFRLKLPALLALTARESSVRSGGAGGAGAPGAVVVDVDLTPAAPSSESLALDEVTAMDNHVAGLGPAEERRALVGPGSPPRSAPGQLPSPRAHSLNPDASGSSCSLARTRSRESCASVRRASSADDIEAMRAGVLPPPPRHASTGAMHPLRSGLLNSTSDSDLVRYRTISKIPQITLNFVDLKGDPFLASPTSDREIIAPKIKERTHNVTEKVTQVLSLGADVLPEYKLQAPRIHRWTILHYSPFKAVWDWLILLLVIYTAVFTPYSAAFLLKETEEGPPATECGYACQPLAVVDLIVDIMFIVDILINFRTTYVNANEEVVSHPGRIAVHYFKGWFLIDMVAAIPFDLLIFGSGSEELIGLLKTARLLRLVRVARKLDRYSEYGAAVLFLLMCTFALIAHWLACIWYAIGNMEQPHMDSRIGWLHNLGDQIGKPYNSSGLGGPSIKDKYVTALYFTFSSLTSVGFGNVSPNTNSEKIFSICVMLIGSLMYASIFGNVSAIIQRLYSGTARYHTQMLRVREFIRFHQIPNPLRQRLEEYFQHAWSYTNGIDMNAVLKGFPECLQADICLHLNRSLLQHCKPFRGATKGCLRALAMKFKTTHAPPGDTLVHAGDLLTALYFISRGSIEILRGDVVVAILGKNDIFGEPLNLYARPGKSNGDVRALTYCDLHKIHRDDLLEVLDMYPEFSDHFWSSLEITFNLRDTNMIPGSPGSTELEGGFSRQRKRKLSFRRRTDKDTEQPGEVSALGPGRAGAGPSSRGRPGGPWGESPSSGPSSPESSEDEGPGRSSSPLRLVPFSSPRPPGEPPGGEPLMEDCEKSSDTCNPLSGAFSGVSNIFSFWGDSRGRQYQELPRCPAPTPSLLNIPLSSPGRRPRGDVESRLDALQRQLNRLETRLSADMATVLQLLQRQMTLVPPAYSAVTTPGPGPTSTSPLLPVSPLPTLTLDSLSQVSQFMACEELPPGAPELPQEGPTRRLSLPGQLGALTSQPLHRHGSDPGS

Row | SMILES | hERG current change (%, negative = inhibition) at 1uM
1 | O=C(CSc1nc2c(c(=O)n1-c1ccc(Cl)cc1)SCC2)NCc1ccco1 | 1.72%
2 | COc1ccc(OC)c(NC(=O)CCCc2ccccc2)c1 | 8.73%
3 | CCN(C(=O)CN1CC=C(c2ccccc2)CC1)c1c(N)n(Cc2ccccc2)c(=O)[nH]c1=O | 14.5%
4 | COc1ccc(Cl)cc1NC(=O)CN1CCc2ccccc21 | -12.6%
5 | Cc1noc(NS(=O)(=O)c2ccc(NC(=O)Nc3ccc(Cl)c(Cl)c3)cc2)c1C | 23.6%
6 | CN1CCN(C(=O)c2ccc3c(c2)OCCO3)CC1.Cl | 9.77%
7 | Cc1nn(C)c(NC(=O)c2ccc([N+](=O)[O-])cc2)c1Cl | 14.7%
8 | Cc1nc(-c2cc(C#N)c(=O)[nH]c2C)cs1 | 15.5%
9 | Cc1n[nH]c(C)c1SCC(=O)Nc1ccc(F)cc1 | 13.5%
10 | O=c1c2cnn(-c3ccc(F)cc3)c2ncn1Cc1ccccc1 | 10.9%
11 | CCc1ccccc1Nc1nc(N)nc(COC(=O)CCC(=O)c2ccc(F)cc2)n1 | 7.91%
12 | O=C(CCN1C(=O)C2C3C=CC(C3)C2C1=O)NCC1CCCO1 (centres unmarked) | 2.83%
13 | O=C(Nc1ccc(OCc2ccccc2)cc1)c1cccc([N+](=O)[O-])c1 | 2.9%
14 | O=C(NCC(=O)N1CCCC(C(F)(F)F)C1)c1ccccc1Br (centres unmarked) | 12.5%
15 | C#CCOCCOCCOCCNc1nc(N2CCOCC2)nc(N2CCN(C(=O)[C@H](Cc3cc4ccccc4[nH]3)n3cc([C@@H](N)CC(C)C)nn3)CC2)n1.Cl | 14.3%
16 | Cc1ccc(C(=O)NCC(=O)OC(C)C(=O)NCCC2=CCCCC2)cc1C (centres unmarked) | 19.6%
17 | Cc1nc2nc3c(c(=O)n2[nH]1)CCC3 | 0.193%
18 | N#C/C(=C/c1cn(CC(=O)O)c2ccccc12)C(=O)Nc1ccccc1 | 10.5%
19 | CCOC(=O)c1cnc2cc(-c3ccc(C(C)(C)C)cc3)nn2c1N | 9.35%

Row | SMILES | hERG current change (%, negative = inhibition) at 1uM
20 | O=C1CN(C(=O)c2cccc(Br)c2)c2ccccc2N1 | 5.72%
21 | O=C(NN1CCOCC1)c1cc(-c2ccc(Br)s2)nc2ccccc12 | 3.62%
22 | CCN1C(=O)[C@H]2[C@@H](c3ccc(-c4cccc(Cl)c4)c(OC)c3)N[C@@](C)(C(=O)OC)[C@H]2C1=O.O=C(O)C(F)(F)F | 7.57%
23 | COc1ccc(C)cc1NC(=O)COC(=O)c1ccc2ccccc2n1 | 2.38%
24 | CC(C)CNc1nc(Oc2ccc(=O)[nH]n2)nc(N(C)C)n1 | 5.55%
25 | Cc1ccc(NC(=O)C2CC(=O)N(C(C)C)C2)cc1Cl (centres unmarked) | 45.5%
26 | CC(C)(C)NC(=O)Cn1cc(C(=O)c2ccccc2F)c2ccccc21 | 16.6%
27 | CC(C)CCn1c(=O)c(C(=O)N/N=C/c2cccc(F)c2)c(O)c2ccccc21 | 21.3%
28 | CCOC(=O)/C(C#N)=C/c1cn(CCC(=O)O)nc1-c1cccc(Cl)c1 | 13%
29 | O=C(COC(=O)c1cc(S(=O)(=O)N2CCOCC2)ccc1Cl)Nc1ccc2c(c1)OCO2 | 9.05%
30 | O=C(/C=C/c1ccco1)Nc1nnc(-c2ccco2)s1 | 3.97%
31 | CCN1CCc2c(sc(NC(=O)c3ccc(C(=O)c4ccccc4)cc3)c2C(N)=O)C1.Cl | -7.72%
32 | Cc1cc(C)c[n+](C(C)C(=O)c2ccc(Cl)cc2)c1.[Br-] (centres unmarked) | 18.2%
33 | COc1ccc(NC(=O)C(CCCCNC(=O)OC(C)(C)C)NC(=O)OCc2ccccc2)cc1 (centres unmarked) | 13.5%
34 | CCOc1cccc(C2NCc3ccccc3-n3cccc32)c1O.Cl (centres unmarked) | -3.06%
35 | O=C(O)/C=C/C(=O)NCc1csc2ccccc12 | 7.98%
36 | N#C/C(=C/Nc1ccccc1C(=O)O)C(N)=O | 8.71%
37 | Clc1ccc(-c2nc3cnccn3c2Nc2ccc3c(c2)OCO3)cc1 | 17.1%
38 | Cc1ccc(NC2=CC(=O)CC(C)(C)C2)cc1Cl | 13.1%

Row | SMILES | hERG current change (%, negative = inhibition) at 1uM
39 | CC(Cc1cnccn1)NCc1c(C(=O)N2CCCCCCC2)nc2ccc(Cl)cn12 (centres unmarked) | 0.336%
40 | CSc1nc(NC(C)(C)C)nc(Oc2ccc(=O)[nH]n2)n1 | 10.9%
41 | Cc1ccc(NC(=O)c2ccc3c(c2)C(=O)N(c2cc(C)ccc2C)C3=O)nc1 | 17.4%
42 | CC1(c2ccccc2)CC2CC(c3ccccc3)N1O2 (centres unmarked) | 10.1%
43 | Cc1sc(-c2ccncc2)nc1OC(=O)c1ccc(Cl)cc1 | -3.63%
44 | O=C1N(Cc2cccc(Cl)c2)C[C@@H]2C[C@@H](c3cccn3-c3ccccn3)N3CCC[C@@]123 | -56.9%
45 | CC(C)CCNc1ncnc2c1cnn2Cc1ccccc1Cl | 5.77%
46 | O=C(NCCOCCOCCNC(=O)c1cccnc1)c1cccnc1 | 13%
47 | CCCc1cc(=O)oc2cc(OCC(=O)N3CCc4ccccc43)ccc12 | 0.72%
48 | CCC(=O)N/N=C(\C)CC(=O)Nc1ccc(F)cc1 | 4.11%
49 | COc1cc2c(cc1OC)C(c1cccs1)N(C(=O)c1cccc(S(=O)(=O)N(C)C)c1)CC2 (centres unmarked) | -37.6%
50 | CCOc1ccc(CN2CCNC(=O)C2CC(=O)NC2CCOCC2)cc1 (centres unmarked) | -14.1%
51 | Cc1sc(NC(=O)c2ccco2)c(C(c2cccnc2)N2CCN(c3ccc(F)cc3)CC2)c1C (centres unmarked) | 9.27%
52 | Cc1nnsc1Sc1ccccc1C(=O)O | 11%
53 | CC1=CC(=O)C=CC1(C)C(Cl)Cl (centres unmarked) | -1.14%
54 | COc1cccc(NC(=O)N2CCOCC2)c1 | -13.1%
55 | COc1ccc(-n2nc(C(=O)Nc3ccc4c(c3)OCO4)c3ccccc3c2=O)c(OC)c1 | 10.9%
56 | COC(=O)/C(C#N)=C/c1c(N2CCCCCC2)nc2ccccn2c1=O | 11.1%
